{"source": "the BET-seq Pho4 binding data (Le et al. 2018)", "note": "The other results are listed elsewhere or left out. Values were computed here from the reads of four pooled replicates and scatter widely."}
{"biological_target": "T1, Pho4 (S. cerevisiae) (UniProt P07270)", "T1 sequence": "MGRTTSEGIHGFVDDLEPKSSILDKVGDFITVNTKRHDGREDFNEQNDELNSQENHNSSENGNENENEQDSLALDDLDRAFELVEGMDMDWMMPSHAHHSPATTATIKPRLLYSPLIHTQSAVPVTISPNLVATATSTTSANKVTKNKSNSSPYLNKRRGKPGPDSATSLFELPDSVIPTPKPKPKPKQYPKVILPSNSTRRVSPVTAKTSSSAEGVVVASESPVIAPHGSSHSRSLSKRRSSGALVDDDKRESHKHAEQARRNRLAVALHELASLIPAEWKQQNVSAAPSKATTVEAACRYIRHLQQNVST", "assay": "relative binding free energy (BET-seq); higher = weaker binding", "settings": "reference: library average", "units": {"relative binding free energy": "kcal/mol"}}
{"sequence": "GGTGTCACGTGATGAC", "relative binding free energy": 0.17}
{"sequence": "TTGTACACGTGACTGG", "relative binding free energy": 0.17}
{"sequence": "TATGGCACGTGTTGCT", "relative binding free energy": -0.19}
{"sequence": "TAGTACACGTGGAGTG", "relative binding free energy": 0.02}
{"sequence": "TGTTCCACGTGTGTAG", "relative binding free energy": 0.07}
{"sequence": "ATTGACACGTGTGCGA", "relative binding free energy": -0.03}
{"sequence": "TGAGTCACGTGTTATC", "relative binding free energy": 0.22}
{"sequence": "AATGGCACGTGGATTA", "relative binding free energy": -0.05}
{"sequence": "CGGTGCACGTGCAAGG", "relative binding free energy": 0.09}
{"sequence": "CATGCCACGTGAGGGT", "relative binding free energy": 0.06}
{"sequence": "TGGGGCACGTGCGTCT", "relative binding free energy": -0.24}
{"sequence": "GATGACACGTGAGTTG", "relative binding free energy": 0.36}
{"sequence": "GGGGACACGTGGATTT", "relative binding free energy": 0.17}
{"sequence": "ACGGTCACGTGAGTGT", "relative binding free energy": 0.35}
{"sequence": "TTGGCCACGTGGGATT", "relative binding free energy": -0.05}
{"sequence": "GTTTTCACGTGTACGC", "relative binding free energy": 0.41}
{"sequence": "AAGTTCACGTGAGTAG", "relative binding free energy": 0.39}
{"sequence": "TTTGACACGTGAGTGG", "relative binding free energy": 0.32}
{"sequence": "GATAACACGTGGTTGT", "relative binding free energy": 0.01}
{"sequence": "GAGTACACGTGGATTG", "relative binding free energy": 0.06}
{"sequence": "TATTACACGTGGGTTT", "relative binding free energy": 0.01}
{"sequence": "TTTAGCACGTGCAGGA", "relative binding free energy": -0.05}
{"sequence": "GTGAGCACGTGTATTG", "relative binding free energy": -0.16}
{"sequence": "AGTATCACGTGGTAAG", "relative binding free energy": 0.11}
{"sequence": "ATCGACACGTGGGGTT", "relative binding free energy": -0.19}
{"sequence": "ATTGGCACGTGTAAAA", "relative binding free energy": 0.15}
{"sequence": "TGTTTCACGTGAATAT", "relative binding free energy": 0.31}
{"sequence": "AGAGTCACGTGGTTCA", "relative binding free energy": 0.08}
{"sequence": "TTGAGCACGTGTTAGT", "relative binding free energy": 0.01}
{"sequence": "GGAGGCACGTGGGTGC", "relative binding free energy": -0.23}
{"sequence": "CCGGGCACGTGGATGG", "relative binding free energy": -0.03}
{"sequence": "GGAGGCACGTGTGAGC", "relative binding free energy": 0.01}
{"sequence": "AAATTCACGTGCTTGT", "relative binding free energy": 0.21}
{"sequence": "AGGCGCACGTGGATGG", "relative binding free energy": -0.1}
{"sequence": "GTCGTCACGTGTTTTT", "relative binding free energy": 0.25}
{"sequence": "ATATGCACGTGGTAAG", "relative binding free energy": -0.24}
{"sequence": "ATTGGCACGTGAATTA", "relative binding free energy": 0.04}
{"sequence": "TAGGTCACGTGTCGTT", "relative binding free energy": 0.18}
{"sequence": "CGAGTCACGTGGGGTG", "relative binding free energy": -0.07}
{"sequence": "ATATTCACGTGTACGG", "relative binding free energy": 0.29}
{"sequence": "TGTGACACGTGGATGT", "relative binding free energy": -0.07}
{"sequence": "AGGATCACGTGGTGCT", "relative binding free energy": 0.06}
{"sequence": "TAGGGCACGTGTTTGA", "relative binding free energy": -0.05}
{"sequence": "AAAGGCACGTGTGGTG", "relative binding free energy": -0.09}
{"sequence": "GAGTACACGTGATATT", "relative binding free energy": 0.24}
{"sequence": "TAACGCACGTGGTGAA", "relative binding free energy": 0.01}
{"sequence": "TATAGCACGTGGGTCT", "relative binding free energy": -0.2}
{"sequence": "GAGGTCACGTGCGTTG", "relative binding free energy": 0.15}
{"sequence": "CTGGACACGTGGGAGT", "relative binding free energy": 0.09}
{"sequence": "GTGGACACGTGGTTAT", "relative binding free energy": -0.04}
{"sequence": "AGGGCCACGTGTCTGG", "relative binding free energy": -0.18}
{"sequence": "GTTGGCACGTGCTGTG", "relative binding free energy": -0.2}
{"sequence": "GTGGTCACGTGCCGGG", "relative binding free energy": 0.06}
{"sequence": "GGTAGCACGTGGAGAA", "relative binding free energy": -0.05}
{"sequence": "TATTTCACGTGATCAG", "relative binding free energy": 0.19}
{"sequence": "TGCGGCACGTGGGAGC", "relative binding free energy": -0.19}
{"sequence": "AAGAGCACGTGTGGAA", "relative binding free energy": -0.03}
{"sequence": "CGGGTCACGTGGAATA", "relative binding free energy": 0.16}
{"sequence": "ATTATCACGTGCTCGT", "relative binding free energy": 0.14}
{"sequence": "TCATTCACGTGGGTTG", "relative binding free energy": 0.13}
{"sequence": "GAAACCACGTGTGGGG", "relative binding free energy": 0.06}
{"sequence": "ACGTGCACGTGGAGGT", "relative binding free energy": -0.03}
{"sequence": "TGCGTCACGTGAGGTA", "relative binding free energy": 0.16}
{"sequence": "GCTGTCACGTGTTAGT", "relative binding free energy": 0.1}
{"sequence": "GGTAACACGTGTGGCA", "relative binding free energy": 0.05}
{"sequence": "AGGGGCACGTGCGTCG", "relative binding free energy": -0.11}
{"sequence": "TGGTGCACGTGTAATT", "relative binding free energy": 0.13}
{"sequence": "GGTCACACGTGGCTGG", "relative binding free energy": 0.14}
{"sequence": "GGCATCACGTGGTATT", "relative binding free energy": 0.17}
{"sequence": "TAGGTCACGTGTCATG", "relative binding free energy": 0.04}
{"sequence": "GTTAGCACGTGTCTAG", "relative binding free energy": -0.06}
{"sequence": "AAGGACACGTGGATAT", "relative binding free energy": 0.16}
{"sequence": "GGGCTCACGTGTGGTA", "relative binding free energy": 0.27}
{"sequence": "AATTGCACGTGTAAGT", "relative binding free energy": 0.01}
{"sequence": "AGTCTCACGTGGTCGG", "relative binding free energy": 0.15}
{"sequence": "TGAGCCACGTGATAGG", "relative binding free energy": 0.05}
{"sequence": "GGATCCACGTGGAGGT", "relative binding free energy": 0}
{"sequence": "TGTTACACGTGATGCG", "relative binding free energy": 0.11}
{"sequence": "TTAATCACGTGGGTGC", "relative binding free energy": 0}
{"sequence": "CTTATCACGTGTGCTG", "relative binding free energy": 0.12}
{"sequence": "GAGATCACGTGAGGGC", "relative binding free energy": 0.28}
{"sequence": "ACATGCACGTGAAGGT", "relative binding free energy": 0.2}
{"sequence": "ATGGGCACGTGCGTCA", "relative binding free energy": -0.21}
{"sequence": "GTGAGCACGTGTTGTT", "relative binding free energy": -0.01}
{"sequence": "TAGATCACGTGTATTA", "relative binding free energy": 0.02}
{"sequence": "GTTGTCACGTGCAGGG", "relative binding free energy": 0.07}
{"sequence": "TACTGCACGTGTGCGT", "relative binding free energy": 0.07}
{"sequence": "ATGAACACGTGGGTAG", "relative binding free energy": 0.03}
{"sequence": "GTTGTCACGTGTGTGG", "relative binding free energy": 0.28}
{"sequence": "GTTGACACGTGTTGAT", "relative binding free energy": 0}
{"sequence": "ATCATCACGTGGTTGT", "relative binding free energy": 0.11}
{"sequence": "AGCGGCACGTGCGTGG", "relative binding free energy": -0.23}
{"sequence": "TGAGGCACGTGTGATG", "relative binding free energy": 0.05}
{"sequence": "GTTTGCACGTGTTGAT", "relative binding free energy": -0.04}
{"sequence": "GGTAGCACGTGGGCAT", "relative binding free energy": -0.23}
{"sequence": "GGCGTCACGTGTGGTG", "relative binding free energy": 0.2}
{"sequence": "AATTTCACGTGGGGGT", "relative binding free energy": 0.18}
{"sequence": "TAAGGCACGTGGAGAT", "relative binding free energy": -0.06}
{"sequence": "TAGGGCACGTGCACGG", "relative binding free energy": -0.22}
{"sequence": "CGGAGCACGTGAAGGT", "relative binding free energy": 0.13}
{"sequence": "CTTTGCACGTGGTTAT", "relative binding free energy": -0.07}
{"sequence": "GCAGTCACGTGAGAGT", "relative binding free energy": 0.32}
{"sequence": "GGGGCCACGTGTTGGC", "relative binding free energy": -0.03}
{"sequence": "AGCTTCACGTGTAGGT", "relative binding free energy": 0.26}
{"sequence": "GTATGCACGTGTTGTC", "relative binding free energy": 0.07}
{"sequence": "GTGCGCACGTGCTGTG", "relative binding free energy": -0.18}
{"sequence": "AAGGGCACGTGTTGTG", "relative binding free energy": -0.05}
{"sequence": "TCTATCACGTGGGTTG", "relative binding free energy": 0.04}
{"sequence": "GGTCCCACGTGGAGTG", "relative binding free energy": -0.01}
{"sequence": "GTGATCACGTGATTCG", "relative binding free energy": 0.24}
{"sequence": "CTTTTCACGTGTGAAT", "relative binding free energy": 0.24}
{"sequence": "TCTAACACGTGAGGGG", "relative binding free energy": 0.24}
{"sequence": "TTGGGCACGTGGGTTA", "relative binding free energy": -0.23}
{"sequence": "GGAGTCACGTGGGCCT", "relative binding free energy": 0.15}
{"sequence": "AAGCGCACGTGGGCGT", "relative binding free energy": -0.32}
{"sequence": "GGTGGCACGTGCCGGA", "relative binding free energy": -0.09}
{"sequence": "AGTGTCACGTGGTGAA", "relative binding free energy": 0.06}
{"sequence": "GGTTCCACGTGTAGTG", "relative binding free energy": 0.15}
{"sequence": "TTGTACACGTGCATGT", "relative binding free energy": 0}
{"sequence": "GTAATCACGTGTCGTT", "relative binding free energy": 0.32}
{"sequence": "TTGGTCACGTGATTAT", "relative binding free energy": 0.18}
{"sequence": "GTGGGCACGTGAGGGG", "relative binding free energy": 0.31}
{"sequence": "GTGTGCACGTGCATGG", "relative binding free energy": -0.04}
{"sequence": "GGGGGCACGTGGCGGG", "relative binding free energy": -0.14}
{"sequence": "CTAGTCACGTGACGGG", "relative binding free energy": 0.29}
{"sequence": "CGTTGCACGTGTAGGA", "relative binding free energy": -0.05}
{"sequence": "AGTTACACGTGGTAAT", "relative binding free energy": 0.14}
{"sequence": "TAGGACACGTGTTTTG", "relative binding free energy": 0.05}
{"sequence": "TGCGTCACGTGATCGT", "relative binding free energy": 0.17}
{"sequence": "TGGTACACGTGTAATG", "relative binding free energy": 0.2}
{"sequence": "AAGGCCACGTGAGGGG", "relative binding free energy": 0.17}
{"sequence": "AAAGTCACGTGGGGGG", "relative binding free energy": 0.01}
{"sequence": "GATGGCACGTGAGGGC", "relative binding free energy": 0.22}
{"sequence": "ATCGGCACGTGTTGAT", "relative binding free energy": -0.09}
{"sequence": "GGATTCACGTGAGGGG", "relative binding free energy": 0.3}
{"sequence": "ATGCACACGTGGGCTG", "relative binding free energy": -0.06}
{"sequence": "CTAGGCACGTGGAGTT", "relative binding free energy": -0.16}
{"sequence": "TTGAGCACGTGGGCTG", "relative binding free energy": -0.24}
{"sequence": "TTGTACACGTGGGTTC", "relative binding free energy": -0.13}
{"sequence": "TGGCGCACGTGGTCTT", "relative binding free energy": -0.15}
{"sequence": "GGTTACACGTGGATAG", "relative binding free energy": 0.17}
{"sequence": "TGTATCACGTGGGCGT", "relative binding free energy": 0.03}
{"sequence": "TCTTACACGTGTTGAT", "relative binding free energy": -0.02}
{"sequence": "AGGTTCACGTGTGTGA", "relative binding free energy": 0.23}
{"sequence": "GGGAACACGTGTGGTG", "relative binding free energy": 0.14}
{"sequence": "TAGTGCACGTGATAGG", "relative binding free energy": 0.06}
